Measured values taken from PubChem BioAssay AID1346428 (National Center for Advancing Translational Sciences (NCATS), 2018).
Where “and” joins values, the source holds several entries; their conditions need not be identical. Equal entries are not always repeated. The campaign covered roughly 48,000 compounds. About 1,200 (2.5%) were called active. About 2% were inconclusive and are not listed.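 The calls were made as follows: active = activation of at least 60% and not above a set upper limit (about 1 call in 100 departs from these limits); inconclusive = activation of 40% to 60%, or above that upper limit; inactive = activation under 40%.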 This is one part of the list.
Also: 0% is about no effect.

These molecules were tested against Probable G-protein coupled receptor 32 (Homo sapiens) (UniProt O75388) (assay: qHTS for Agonists of Human Resolvin D1 Receptor DRV1). Details: CHO-K1 GPR32 beta-arrestin PathHunter luminescence, 90 min; at 76.9 µM; stronger effect = higher value; zero percent set by DMSO-only wells.
UniProt O75388, sequence (O75388 whole entry, looked up): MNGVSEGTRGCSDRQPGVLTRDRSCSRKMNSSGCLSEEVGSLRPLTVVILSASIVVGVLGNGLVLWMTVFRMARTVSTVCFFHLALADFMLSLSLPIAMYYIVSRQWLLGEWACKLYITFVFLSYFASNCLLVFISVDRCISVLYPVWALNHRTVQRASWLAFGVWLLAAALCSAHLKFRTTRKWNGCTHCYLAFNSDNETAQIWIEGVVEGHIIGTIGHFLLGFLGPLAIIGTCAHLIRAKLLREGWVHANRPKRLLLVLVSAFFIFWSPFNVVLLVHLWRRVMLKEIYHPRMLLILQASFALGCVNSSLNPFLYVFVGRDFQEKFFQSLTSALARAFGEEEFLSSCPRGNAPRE
Summary of the method: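 CHO-K1 cells stably expressing ProLink-tagged GPR32 and Enzyme Activator-tagged beta-arrestin were seeded at 2,500 cells/well overnight, exposed to compounds for 90 min at 37 °C, then read by beta-Gal complementation chemiluminescence after 1 h detection reagent.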
For `COc1cccc(C(=O)Nc2ccc3nc(SCC(=O)N4CCOCC4)sc3c2)c1`, the activation was inactive: -11.9%. `Cn1c(=O)n(C)c2cc(NS(=O)(=O)c3ccc(F)cc3)ccc21` was tested, and the activation was inactive: 7.69%. For `Cc1ccc(OCC(=O)N(c2ccc(C)cc2)S(=O)(=O)c2ccc(Cl)cc2)cc1`, the activation was inactive: -5.41%. `Cc1ccc2c(CN3CCN(C(=O)c4ccc(F)cc4)CC3)cc(=O)oc2c1` was tested, and the activation was inactive: 6.45%. `O=C(CS(=O)(=O)c1cccc2nsnc12)Nc1ccccc1` was tested, and the activation was inactive: 9.16%. For `CCc1c2c(nc3ccc(OC(=O)N4CCC(N5CCCCC5)CC4)cc13)-c1cc3c(c(=O)n1C2)COC(=O)[C@]3(O)CC`, the activation was inactive: -7.11%. For `CCOc1ccccc1NC(=O)CSc1nc(=O)[nH]c2c1CCCC2`, the activation was inactive: 2.12%. In the case of `CSCCC(NS(=O)(=O)c1ccc2c(c1)oc(=O)n2C)C(=O)N1CCN(c2cc(C)ccc2C)CC1` (centres undefined), the activation is reported as inactive: -25.7%. `COc1ccc(C2CC(=O)NC(NC(=O)c3ccc(Br)cc3)=N2)c(OC)c1OC` (centres undefined) was tested, and the activation was inactive: -3.6%. With `CC(C)(C)c1ccc(C(=O)NCCc2csc3nc(-c4ccccc4F)nn23)cc1` the activation was inactive: -4.57%. With `COc1ccccc1CNC(=O)CN1C(=O)COc2ccc(S(=O)(=O)Nc3ccccc3)cc21` the activation was inactive: -6.1%. For `Cc1nc2ccc(S(=O)(=O)N(CC(=O)Nc3cccc(F)c3)Cc3ccccc3)cc2s1`, the activation was inactive: 16.8%. In the case of `CC(C)CCn1c(=O)c2sccc2n2c(CCCC(=O)NCCc3ccccc3)nnc12`, the activation is reported as inactive: -21.7%. `O=C1CC(c2ccccc2)c2c(n3ncnc3[nH]c2=O)N1` (centres undefined) was tested, and the activation was inactive: 3.63%. In the case of `CCc1cccc(NC(=O)Cn2c(=O)n(CC(=O)NCCc3ccccc3)c(=O)c3ccccc32)c1`, the activation is reported as active: 81.2%. With `C[C@@H](O)[C@H](N)C(=O)O` the activation was inactive: -1.25%. For `O=C(NCCc1ccc(Cl)cc1)c1ccc(CS(=O)Cc2ccccc2Cl)o1` (centres undefined), the activation was inactive: -6.69%. In the case of `OC[C@H]1O[C@@H](OCCc2ccc(O)cc2)[C@H](O)[C@@H](O)[C@H]1O`, the activation is reported as inactive: 2.72%. In the case of `COc1cccc(CNC(=O)c2oc3c(c2C)-c2nn(Cc4cccc(Cl)c4)cc2CC3)c1OC`, the activation is reported as inactive: 2.96%. `COc1ccccc1C(=O)N1CCC(c2noc(-c3ccc(S(=O)(=O)N4CCCC4)cc3)n2)CC1` was tested, and the activation was inactive: 8.97%. For `CC(C)N(C)C1CCN(S(=O)(=O)c2ccc3[nH]c(=O)ccc3c2)CC1`, the activation was inactive: 15.1%. With `COc1ccc(NC(=O)Cn2c(SCc3ccc(F)cc3)nc3cccnc32)cc1OC` the activation was inactive: 26.1%. With `Cc1cccc(NC(=O)C2CCN(c3nc4ccccc4[nH]3)CC2)c1C` the activation was inactive: -9.38%. For `Cc1cc(C)cc(N2C(=O)CSC23C(=O)N(CC(=O)Nc2ccc(F)cc2F)c2ccccc23)c1` (centres undefined), the activation was inactive: 3.49%. For `Cc1ccc(C)c(CNC(=O)CCn2cccn2)c1`, the activation was inactive: -6.5%. With `O=C(Nc1ccc2nc(SCC(=O)N3CCCC3)sc2c1)c1cccc(Br)c1` the activation was inactive: -9.32%. `CCOC(=O)c1oc2c(c1C)-c1nn(Cc3c(F)cccc3Cl)cc1CC2` was tested, and the activation was inactive: -17.1%. In the case of `CCCCc1nn2c(=O)cc(COC(=O)c3ccc(NC(=O)CCc4ccccc4)cc3)nc2s1`, the activation is reported as inactive: 13.9%. `CCOCCCN1C(=O)c2[nH]nc(-c3ccccc3O)c2C1c1ccc(CC)cc1` (centres undefined) was tested, and the activation was inactive: -10.1%. With `CCc1ccc(NC(=O)Cc2c(C(=O)O)c(C)cn2C)cc1` the activation was inactive: -3.26%. With `Cc1ccccc1Nc1c(-c2ccc(Br)o2)nc2ccc(Cl)cn12` the activation was inactive: -12%. For `CC(C)CCNC(=O)Nc1ccc2c(c1)N(Cc1ccccc1)C(=O)c1ccccc1S2`, the activation was inactive: -20.5%. In the case of `Cc1ccc(S(=O)(=O)CC(=O)Nc2sc3c(c2C(N)=O)CCCC3)cc1`, the activation is reported as inactive: -17.6%. `Cc1ccc(NC(=O)CCN2CCN(CCO)CC2)cc1C` was tested, and the activation was inactive: -10.1%. For `COc1ccc(CCNC(=O)c2ccc3c(c2)N(Cc2ccc(Cl)cc2)C(=O)c2ccccc2S3)cc1OC`, the activation was inactive: -16.2%. With `CCOc1ccc(-c2nn(CC(=O)NC3CCCC3)c3c2cnc2ccc(C)cc23)cc1` the activation was inactive: -9.39%. For `COc1cc(OC)c(NC(=O)c2cc(C)nc3c2c(C)nn3-c2ccc(C)cc2)cc1Cl`, the activation was inactive: 2.62%. In the case of `CCN(Cc1nc(-c2ccc(OC)cc2)oc1C)S(=O)(=O)c1ccc(C)cc1`, the activation is reported as inactive: -2.64%. With `Cc1c(CCNC(=O)c2ccco2)sc2nc(-c3ccc(F)cc3)nn12` the activation was inactive: -12.4%. `Cc1ccc(NC(=O)CN2CCSc3ccc(S(=O)(=O)N4CCCC4)cc32)cc1` was tested, and the activation was inactive: -13%. For `CCCCN(CC)C(=O)c1cc2c(=O)n3cccc(C)c3nc2n1C`, the activation was inactive: -17.7%. In the case of `CCc1ccc(Oc2c(C(F)(F)F)oc3c(CN4CCC(C)CC4)c(O)ccc3c2=O)cc1`, the activation is reported as inactive: 22.6%. With `CC(=O)c1ccc(NC(=O)Cn2c(-n3nc(C)cc3C)nc(C)c(C)c2=O)cc1` the activation was inactive: -12%. For `CCOc1ccccc1Nc1nnc(-c2cc3cc(OC)ccc3oc2=O)s1`, the activation was inactive: 0.59%. With `CCN(CC)c1cc2c(cc1F)c(=O)c(S(=O)(=O)c1ccc(OC)cc1)cn2Cc1ccccc1` the activation was inactive: -3.41%. In the case of `CCOC(=O)Cc1ccc(NC(=O)N2CCC(CN3CCCCCC3)CC2)cc1`, the activation is reported as inactive: -21.1%. With `COc1ccc(C(=O)N2CCC(C(=O)Nc3ccc(Cl)cc3)CC2)cc1` the activation was inactive: 28.7%. `CCCCN(CC)CCCNC(=O)Cn1ncc2c3ccccc3n(C)c2c1=O` was tested, and the activation was inactive: -14.7%. For `CCOc1ccc(S(=O)(=O)N(CC(=O)NCc2ccccc2OC)c2ccccc2)cc1`, the activation was inactive: -2.63%. For `COc1cccc(CSc2nc3n(n2)C(CC(C)C)C(C(=O)Nc2ccccc2OC)=C(C)N3)c1` (centres undefined), the activation was inactive: 21.8%. `Cc1cc(=O)n2nc(N(C)CC(=O)NCc3cccc(Br)c3)sc2n1` was tested, and the activation was inactive: -14.5%. In the case of `Cc1ccc(/C(=C\CN2CCCC2)c2ccccn2)cc1`, the activation is reported as inactive: 11.1% and inactive: -22%. With `CCOc1ccc(OCC)c(NC(=O)Cn2nc(CC)n3c(cc4sccc43)c2=O)c1` the activation was inactive: -16.9%. In the case of `CCOC(=O)c1ccc(NC(=O)NCCOCCn2c(=O)oc3ccccc32)cc1`, the activation is reported as inactive: 13.2%.
